Test results taken from the supplement of paper PMC11417369.
The other results are listed elsewhere or left out.

Tested on: PfSIP2 AP2 domain 1 (GST-tagged)
Test: gcPBM binding intensity (ln(normalized median fluorescence intensity)); higher = stronger DNA binding
In short: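 In this array assay, P. falciparum DNA-binding domains with a GST tag, expressed in E. coli, were applied for 1 h to primer-extended double-stranded 36-bp intergenic genomic probes and negative controls on an Agilent 4 × 180k array. Bound protein was visualised with Alexa488 anti-GST antibody at 488 nm. Binding intensity is the highest Masliner-normalised natural-log median intensity across replicate spots of either probe orientation.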

Sequence	gcPBM binding intensity (ln)
TATAATCATAAATACACACACATATATATATATATA [CACACA_site5224]	9.47
TTCTCATCCTTACATACACACACATATATATATATA [CACACA_site7914]	9.69
GTTCAATTATTTTTATGTACATATATTTTTTTCTTT [XGTACX_site2505]	7.46
GTTATTAAAAACGGGTGTACACATATATAAATATAT [XGTACX_site1234]	7.59
TATTTATTATAAAAATTGTATAAAATAATAATGCTC [GTGCAC_negctrl_site456]	7.02
ATTTCACAGAAACACACACACAATATATTTCCTTTT [CACACA_site3904]	6.84
GAAAAATGAAGAGAACAAAATTTTATGATATATATA [GTGCAC_negctrl_site231]	7.2
TTTCATAAATAAATATGTACATAATTAATAATAAAT [XGTACX_site5882]	7.03
CCTTGAACCCCACTAACACACACACCCACGCTCAGA [CACACA_site8976]	7.23
TATACATAGATATATACACACATATATTTATATACA [CACACA_site6328]	6.93
ATTACAAAAAAAAAAAAAAAAAAAAAAAAAAAAAAA [CACACA_negctrl_site448]	7.04
ATATGTATATATATTTGTACGTAAAATGAAATCTAA [XGTACX_site213]	7.45
AAATAGTATATAATATGTACATACATAAAAATGTAT [XGTACX_site3524]	6.95
ACCTATGTATATTATACACACTCCAAACTATTATTT [CACACA_site1817]	7.19
AAAGGTAAGCAGAATAGTACAGAAGAAAAAATATTT [XGTACX_site2941]	6.89
TTTTGTTTGTTCGTGACTACATTATGTTGTAAATAC [CACACA_negctrl_site604]	7.01
CAACATTTGAGACACACACACATACAAACAAACAAA [CACACA_site7538]	7.21
TATCCTATAAATAATACATGCATATATATATATATT [TGCATGCA_site638]	7.21
ATCAAAAAAAAAAAATTTTTTTTTTTGTTTGTTTCC [CACACA_negctrl_site1042]	6.9
AAGAAAATTAAATTAACACACATAAATATGTAAATA [CACACA_site6882]	6.61
CCAATAATATATAGAAGTACAGAAAAAAAAAAAAAA [XGTACX_site2049]	6.9
CCCTCTTCTCTCATATCACACATGTCATCCTTATCC [CACACA_site5078]	7.75

Sequence	gcPBM binding intensity (ln)
TATAAATATTTATAAACACACAAATATATATATTTA [CACACA_site27]	7.02
ATCAAAATGTTAAAGATACACACCTAACAAACACAA [CACACA_site955]	7.31
GCACGCTGTATGAATGCACACATTCATAGAATTGCT [CACACA_site8852]	6.88
TTATATATATAGAAGTGTACAAAATTTCCTAGACCT [XGTACX_site3900]	7.06
TATCGACATTTCATTTGTACATATATACATATATTT [XGTACX_site3346]	7
TTTTTCTCTTTAAGGTGTACAATAATACAGTAACCA [XGTACX_site300]	7.44
TTGTACGCAAAAAAAAAAAAAAAAAAATTAAAATTT [TGCATGCA_negctrl_site586]	7.28
ATATTAGTAACACAGACACACAAAAAAAAAAAAAAA [CACACA_site2176]	6.99
AGGAAAATACCTTAATGTACATAGAAAAGTAACATT [XGTACX_site8011]	6.9
TTTTTTATTATCAAAACATGCATTTTTTAAATGGAA [TGCATGCA_site557]	6.81
CACTTAACACAAGAGTGTACACATATATATATATAT [XGTACX_site686]	9.53
TTAAGAAGTTCTAAATGTACATACATAACCACGTTA [XGTACX_site7514]	7.13
GGGAAATATTGAAACACACACGAACGCACGTATTTC [CACACA_site6258]	6.85
ATAATATTTTCTTCTTATTGAATGCTTTAAATTTAC [CACACA_negctrl_site1273]	6.98
ACAAATAAGTTTTGTAGTACTGTGTATATATATATA [XGTACX_site6901]	9.06
TTAAACCGTGGGAGCACACACACACCCCCACCCATA [CACACA_site331]	7.51
TAATGAAATATACAGAGTACATTCTGTATATAGGAT [XGTACX_site7691]	6.89
GCATAAGAAAATAATTGTACAATTTACATACATAAA [XGTACX_site8286]	7.05
TATATATGTATATATATAAATATATATATATATATA [TGCATGCA_negctrl_site605]	9.29
TATAAATATATATACACACACACATTAATACATATA [CACACA_site3488]	7.21
AATATATACAATATATGTACATATATATACACATAT [XGTACX_site4190]	7.18
CTTTTATTAAAATTCACACACATAAACTTTTATAAA [CACACA_site7027]	6.96

Sequence	gcPBM binding intensity (ln)
CTTATATATATATCATGTACTTATGTATTTAAGAAT [XGTACX_site3307]	7.01
ACAATAAAAATTTATGCATGTGAATTGAAAAAAAAA [TGCATGCA_site1037]	6.84
AAATAAAACAAACACACACACACATACACAAAAAAA [CACACA_site3849]	7.23
GTTATTGAAAAAATAGTGCAATATAACAAAGTAAAA	8.9
TAATTTCTTATGTATTGTACAAATAATATATGATAT [XGTACX_site611]	7.19
GGAATGTAGGGTTTTACCAAAATAAAAATAACCATA [XGTACX_negctrl_site492]	6.84
TATATATTTCGGTGTGCACACTTTTTATTTTTATCC [CACACA_site1726]	8.4
TATATATATATATGTACACACATATATACCTTTCAT [CACACA_site2679]	9.51
ATAAAATACCTATAAACACACATATAAACAGACATA [CACACA_site7213]	7.09
TAAGAAAAAAAAAAAAAAAAAAAAAAAAAAAAAAAA [CACACA_negctrl_site760]	6.96
TAAAAATATTTTCATTGTACATATATATAAATATAT [XGTACX_site1123]	6.97
TATAAAAAAAAAAAATATATATATATATAAATATAA [TGCATGCA_negctrl_site367]	7.04
TCACCTATTTTTAACTGTACTGAAATGATATATATA [XGTACX_site1366]	7.28
TAATGAAATTGTAGTAGTACCTTCTTATAAATAAAA [XGTACX_site6747]	6.64
ATTTGTTACGGACATGCATGCGAATCAGGGTATATA [TGCATGCA_site154]	7.13
TTGAGGAAATAACAGTGTACAAACAAATTATTACCA [XGTACX_site7082]	6.85
TACATATATATATATATATATATATATATCATTATG [XGTACX_negctrl_site293]	7.75
ATGGTACATACATACACACACACAAAAAAAAAAAAA [CACACA_site1578]	7
GTTCAATTTTTAGGAAGTACAAAAAAAAAAAAGAAA [XGTACX_site7286]	7.11
CAAACCTATATACAAACATGCAATCCACATATTGGT [TGCATGCA_site756]	6.96
TATATTTGTATTGTTTGTACTTATATGAATTTATAT [XGTACX_site4228]	7.08
TATATTAGTGTTGACACACACAAAAAAAAAAAAAAA [CACACA_site1396]	7.12

Sequence	gcPBM binding intensity (ln)
TTTATTGACAATTTATGTACATATAATTGAAAAATA [XGTACX_site6634]	7.22
TTTGTGATATTATATTGTACCCTATATTTATTATAA [XGTACX_site4240]	7.16
GAATGGACGTTAGGGGGTACGTATAAAATTTATCAA [XGTACX_site683]	7.8
AAATAATGTTTGAATTGTACACATATTTGTGTTTCT [XGTACX_site4603]	7.06
GTGGAACGTATATTTTCACACACTCTCAAAAGTACA [CACACA_site8722]	6.83
ATGTTGCACAGTGGAAGAATTAAAAATAAATAAATA [XGTACX_negctrl_site581]	8.19
GTGGAACATATGAACTCACACACATTTTCACTTAAA [CACACA_site3683]	6.82
AATATTATAAATGTCACACATATATTCAAATATATA [CACACA_site4736]	6.83
AATTTTTGTATTTTTAGTACTTAATTTCAAAATAAC [XGTACX_site4234]	6.99
ATGAACATATCAATTCTCAAAATAGGATGAGAGCAT [CACACA_negctrl_site230]	6.88
TTTGTATATTATTTTAGTACATAACATTGAAGATAT [XGTACX_site6680]	7.15
ATATAAGGATTAATATGTACATATATATATATATTT [XGTACX_site1390]	7.2
TATTTTGAAACTAAAAGACATAGAGAAAACAAAAAA [CACACA_negctrl_site1306]	7.04
GACATTGATACCAGTAGTACCTATAGATGTTTGTTT [XGTACX_site5736]	6.95
TTATGGAATAATCACGTACACACAAGAAAAAAAAAA [CACACA_site526]	7.36
TTATAGAAAATGGAATAGAATGGAATGGAAGAAATA [CACACA_negctrl_site1086]	7.01
ATTATATATAAGAAGAGTACTGAATATGTGCAATAT [XGTACX_site4471]	7.43
TATATACACCCACATACACACAAATAAAAAAACACC [CACACA_site3414]	8.14
GTATATAAATATATATATATATATATATCTATATTT [CACACA_negctrl_site871]	7.42
GTATTTTTACAAATTTGTACATATATATGAATATAC [XGTACX_site6717]	7.41
AAAGAAAAATTAACATGTACAAAAATTACTTGTTCA [XGTACX_site6725]	6.49
